# Measurements: PubChem BioAssay (Tox21)
# Values joined by “and” are separate entries in the source; they are usually repeats but may differ in a detail not shown here. Equal values may be shown once. Inconclusive means that the source gave no clear call. Such entries were picked first, then a sample of the others. For some assays here: A potency beside an inconclusive call is a rough fit, not a confirmed value. Active and inactive are the calls of the source. Unless noted, calls come from the whole dose curve.
# Tests used:
# [1] = qHTS assay to identify small molecule agonists of the estrogen receptor alpha (ER-alpha) signaling pathway in the presence of an antagonist - cell viability counter screen (AID 1259386; active = well fitted curve in the direction sought with a large enough effect in the repeat runs; inconclusive = weak or mixed curves; inactive = no such curve, though single readings can be large; an effect the other way counts as inactive or inconclusive;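 note: cells exposed to compounds for 22 h at 37 °C before the viability read; nearly all actives have a fitted effect of over 30% in size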; note: potency is the fitted concentration of half-maximal effect)
# Method in brief: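 Read-out: CellTiter-Fluor fluorescence after 1hr reagent incubation, measured in the same wells as the luciferase readout. VM7Luc4E2 cells were exposed to 15 compound concentrations with 10.0nM ICI-182,780 for 22hr at 37C.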
# [2] = biological target: Thyrotropin receptor (Homo sapiens) (UniProt P16473); assay: qHTS assay to identify small molecule antagonists of the thyroid stimulating hormone receptor (TSHR) signaling pathway (AID 1259385); details: TSHR-HEK293 cAMP HTRF, TSH-stimulated antagonist mode; activity change, negative = inhibition: at 92.4 µM (top of the series) unless noted; note: nearly all actives have a fitted effect of over 20% in size
# Method in brief: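 Antagonist mode: compound-treated TSHR-expressing HEK293 cells were stimulated with 1.5 ng/mL TSH (final) in presence of Ro20-1724 for 30 min at RT. HTRF cAMP detection after 1 h; each compound tested at 15 concentrations, triplicate.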
# [3] = biological target: Progesterone receptor (Homo sapiens) (UniProt P06401); assay: qHTS assay to identify small molecule antagonists of the progesterone receptor (PR) signaling pathway (AID 1346795; active = well fitted inhibition curve with a large enough effect in the signal ratio in the repeat runs, not every such curve was filed as active; inconclusive = weak or mixed curves; the % refers to the signal ratio; note: potency is the fitted concentration of half-maximal effect); details: PR-UAS-bla HEK293T, beta-lactamase FRET ratio, 16 h
# Method in brief: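 Stimulus R5020 at 1 nM final; cells HEK293T PR-UAS-bla; medium with 2% charcoal-stripped FBS; compound exposure 16 hr at 37C, 5% CO2; detection by FRET beta-lactamase substrate, 2 hr, room temperature.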
# [4] = biological target: Progesterone receptor (Homo sapiens) (UniProt P06401); assay: qHTS assay to identify small molecule agonists of the progesterone receptor (PR) signaling pathway (AID 1346784); details: PR-UAS-bla HEK293T, beta-lactamase FRET ratio, 16 h; activation: at 92.4 µM (top of the series) unless noted; note: nearly all actives have a fitted effect of over 30% in size; note: potency is the fitted concentration of half-maximal effect
# Method in brief: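 Reporter assay, GripTite PR-UAS-bla HEK 293T cells: 16 hr exposure to DMSO-dissolved compounds at 37C, 5% CO2, in steroid-depleted (2% charcoal-stripped FBS) medium; beta-lactamase measured by FRET fluorescence.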
# [5] = qHTS assay to identify small molecule antagonists of the progesterone receptor (PR) signaling pathway - cell viability counter screen (AID 1346798; active = well fitted curve in the direction sought with a large enough effect in the repeat runs; inconclusive = weak or mixed curves; inactive = no such curve, though single readings can be large; an effect the other way counts as inactive or inconclusive; note: nearly all actives have a fitted effect of over 50% in size; note: potency is the fitted concentration of half-maximal effect)
# Method in brief: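 In the same plates used for the beta-lactamase readout, cell viability of compound- and R5020-treated PR-UAS-bla HEK293T cells (16 hr, 37C) was assessed by CellTiter-Glo luminescence.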
# [6] = qHTS assay to identify small molecule agonists of the progesterone receptor (PR) signaling pathway - cell viability counter screen (AID 1346799); note: nearly all actives have a fitted effect of over 45% in size; note: potency is the fitted concentration of half-maximal effect
# Method in brief: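 Multiplexed viability read: CellTiter-Glo luminescence, 30 min RT, following LiveBLAzer FRET measurement on PR-UAS-bla HEK293T cells exposed to compounds 16 hr.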
# [7] = qHTS assay to identify small molecule antagonists of the TGF-beta/Smad signaling pathway - cell viability counter screen (AID 1346824; active = well fitted curve in the direction sought with a large enough effect in the repeat runs; inconclusive = weak or mixed curves; inactive = no such curve, though single readings can be large; an effect the other way counts as inactive or inconclusive; note: nearly all actives have a fitted effect of over 50% in size; note: potency is the fitted concentration of half-maximal effect)
# Method in brief: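 Cytotoxicity counter-screen run in the same wells as the beta-lactamase Smad reporter read: CellTiter-Glo luminescence after 30 min at room temperature. HEK 293T SBE-bla cells had 5 hr compound exposure at 37 C with TGF-beta1 (0.25 ng/mL stock).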
# [8] = qHTS assay to identify small molecule agonists of the TGF-beta/Smad signaling pathway (AID 1346859; active = well fitted activation curve with a large enough effect in the signal ratio in the repeat runs, not every such curve was filed as active; inconclusive = weak or mixed curves; the % refers to the signal ratio); details: SBE-bla HEK293T, TGF-beta/Smad beta-lactamase reporter, 5 h; activation: at 76.8 µM (top of the series)
# Method in brief: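 Screening used HEK 293T SBE-bla cells at 4,000/well. Test agents: 5 hr, 37 C. Detection: FRET substrate, 2 hr RT, then excitation 405 nm with emissions at 460 and 530 nm.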
# [9] = qHTS assay to identify small molecule agonists of the TGF-beta/Smad signaling pathway - cell viability counter screen (AID 1346829; active = well fitted curve in the direction sought with a large enough effect in the repeat runs; inconclusive = weak or mixed curves; inactive = no such curve, though single readings can be large; an effect the other way counts as inactive or inconclusive; note: top concentration of the series differs between compounds; nearly all actives have a fitted effect of over 45% in size)
# Method in brief: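 Same-well cytotoxicity: CellTiter-Glo added after the 2 hr room-temperature beta-lactamase substrate step, luminescence measured 30 min later; cells had 5 hr of compound at 37 C.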
# [10] = activity change, negative = inhibition: at 92.4 µM (top of the series) unless noted
# % is set by controls: 0 for no effect and ±100 for the full control effect; tags give direction and shape of the fitted curve or compound fluorescence and quenching.
# Chain of UniProt P06401 (P06401 whole entry, looked up): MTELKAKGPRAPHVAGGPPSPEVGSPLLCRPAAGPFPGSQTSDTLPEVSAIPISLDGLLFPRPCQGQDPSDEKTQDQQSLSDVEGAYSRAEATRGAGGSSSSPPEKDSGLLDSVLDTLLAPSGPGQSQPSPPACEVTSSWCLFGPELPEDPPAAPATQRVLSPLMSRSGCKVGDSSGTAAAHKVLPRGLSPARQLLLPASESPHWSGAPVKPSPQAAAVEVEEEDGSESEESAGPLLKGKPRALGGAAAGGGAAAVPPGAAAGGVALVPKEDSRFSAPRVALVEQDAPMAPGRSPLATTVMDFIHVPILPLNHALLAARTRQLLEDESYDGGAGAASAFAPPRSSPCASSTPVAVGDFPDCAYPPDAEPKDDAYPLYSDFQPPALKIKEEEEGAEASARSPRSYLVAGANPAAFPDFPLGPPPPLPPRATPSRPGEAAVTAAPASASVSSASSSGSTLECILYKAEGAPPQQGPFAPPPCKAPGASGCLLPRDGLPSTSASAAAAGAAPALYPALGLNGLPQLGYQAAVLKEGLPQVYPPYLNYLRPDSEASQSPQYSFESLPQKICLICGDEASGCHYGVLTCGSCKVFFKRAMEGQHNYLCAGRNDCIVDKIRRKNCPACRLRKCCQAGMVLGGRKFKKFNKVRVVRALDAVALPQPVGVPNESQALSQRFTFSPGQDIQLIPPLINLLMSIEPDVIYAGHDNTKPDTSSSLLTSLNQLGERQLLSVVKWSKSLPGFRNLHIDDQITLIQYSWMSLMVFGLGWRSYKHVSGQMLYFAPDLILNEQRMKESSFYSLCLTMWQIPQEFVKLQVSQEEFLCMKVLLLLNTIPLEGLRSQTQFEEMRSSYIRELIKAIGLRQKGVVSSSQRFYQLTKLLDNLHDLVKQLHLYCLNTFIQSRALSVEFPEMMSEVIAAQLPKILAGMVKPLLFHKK
# Chain of UniProt P16473 (P16473 whole entry, looked up): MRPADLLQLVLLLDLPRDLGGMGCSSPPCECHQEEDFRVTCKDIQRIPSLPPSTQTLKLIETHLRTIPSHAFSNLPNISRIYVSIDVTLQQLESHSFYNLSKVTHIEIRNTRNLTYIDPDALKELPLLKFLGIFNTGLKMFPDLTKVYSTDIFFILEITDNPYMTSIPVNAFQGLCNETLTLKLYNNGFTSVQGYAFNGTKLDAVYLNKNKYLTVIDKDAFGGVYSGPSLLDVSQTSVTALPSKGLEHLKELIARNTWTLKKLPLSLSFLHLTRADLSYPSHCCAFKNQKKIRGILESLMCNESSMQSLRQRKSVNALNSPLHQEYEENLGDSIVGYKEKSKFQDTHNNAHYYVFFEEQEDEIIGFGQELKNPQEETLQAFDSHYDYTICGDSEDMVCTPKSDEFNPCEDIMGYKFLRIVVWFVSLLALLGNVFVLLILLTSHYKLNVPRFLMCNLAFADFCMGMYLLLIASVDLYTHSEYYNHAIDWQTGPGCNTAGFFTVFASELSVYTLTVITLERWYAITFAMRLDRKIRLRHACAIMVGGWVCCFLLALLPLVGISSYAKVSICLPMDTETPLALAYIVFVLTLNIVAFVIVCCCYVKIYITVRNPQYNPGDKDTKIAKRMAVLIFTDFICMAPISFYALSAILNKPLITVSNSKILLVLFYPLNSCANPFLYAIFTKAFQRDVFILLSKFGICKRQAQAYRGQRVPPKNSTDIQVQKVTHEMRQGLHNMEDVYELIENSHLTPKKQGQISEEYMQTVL
smiles,measurement,setting,value
CC(N)CN (stereo unspecified),Potency,[1],inactive
CC1COc2c(N3CCN(C)CC3)c(F)cc3c(=O)c(C(=O)O)cn1c23 (stereo unspecified),Potency,[2],inactive
same,"activity change, negative = inhibition",[3]; [10],inconclusive: 18% [at 42.5 µM]
CC(=O)OC(C)OC(C)=O,Potency,[4],active: 50 µM
same,Potency,[5],"inconclusive: 31.6 µM [rising, single point]"
C[N+]1(CC2COC(c3ccccc3)(c3ccccc3)O2)CCCCC1 (stereo unspecified),activation,[4],inconclusive: 13.4% [at 19 µM]
same,Potency,[5],"inconclusive: 0.146 µM [cytotoxic, single point]"
CC1=CCC2CC1C2(C)C (stereo unspecified),Potency,[1],inactive
same,Potency,[5],inactive
same,Potency,[6],inactive
CCN1CCC[C@H]1CNC(=O)c1c(OC)ccc(Br)c1OC,Potency,[1],inactive
same,Potency,[6],"inconclusive: 2.98 µM [cytotoxic, single point]"
CCCCCC(C)O (stereo unspecified),Potency,[4],inactive
same,"activity change, negative = inhibition",[3]; [10],inconclusive: 10.2%
CCCCCCCCCCCCc1ccccc1,Potency,[4],inactive
Nc1c(Br)cc([N+](=O)[O-])cc1Br,Potency,[4],inactive
same,Potency,[3]; [10],"inconclusive: 19.3 µM [rising, full curve]"
same,Potency,[5],inactive
CCCCOC(=O)C(C)Oc1ccc(Oc2ccc(C(F)(F)F)cn2)cc1 (stereo unspecified),Potency,[1],inactive
same,Potency,[7],"inconclusive: 54.9 µM [cytotoxic, single point]"
Nc1ccc(S(=O)(=O)Nc2nccs2)cc1,Potency,[4],inactive
same,"activity change, negative = inhibition",[3]; [10],inconclusive: 6.92%
same,"activity change, negative = inhibition",[3]; at 42.5 µM (top of the series),inactive: 6.94%
same,"activity change, negative = inhibition",[3]; at 92.4 µM (top of the series),inactive: 7.81% and inactive: 0.141%
same,Potency,[5],inactive
NCc1ccccc1,Potency,[1],inactive
same,Potency,[6],inactive
CCCCCCCCCCCCCCCCC(=O)O,Potency,[4],inactive
same,Potency,[3]; [10],inactive
OCCN1C[C@H](O)[C@@H](O)[C@H](O)[C@H]1CO,Potency,[4],inactive
same,Potency,[7],inactive
COC(=O)/C=C\C(=O)OC,Potency,[4],inactive
same,Potency,[3]; [10],inactive
C#CCN[C@@H]1CCc2ccccc21,Potency,[4],inactive
same,Potency,[3]; [10],inactive
Cc1cccc(C)c1[N+](=O)[O-],activation,[4],inconclusive: -26.5%
same,Potency,[3]; [10],"inconclusive: 61.1 µM [falling, partial curve, poor fit]"
same,Potency,[5],"inconclusive: 61.1 µM [cytotoxic, partial curve, poor fit]"
C[C@]12C=CC(=O)C=C1[C@@H](F)C[C@@H]1[C@@H]2[C@@H](O)C[C@@]2(C)[C@H]1CC[C@]2(O)C(=O)CO,Potency,[4],"inconclusive: 29.8 µM [activator, partial curve]"
same,"activity change, negative = inhibition",[3]; [10],inconclusive: -24.5% [at 42.5 µM]
same,Potency,[6],inactive
same,Potency,[8],inactive
CCC/C=C/CO,Potency,[4],inactive
same,Potency,[6],"inconclusive: 4.86 µM [cytotoxic, single point]"
CCC(C)(C)C1CCC(OC)CC1 (stereo unspecified),Potency,[4],inactive
NC[C@H]1O[C@H](O[C@H]2[C@H](O)[C@@H](O[C@H]3O[C@H](CO)[C@@H](O)[C@H](N)[C@H]3O)[C@H](N)C[C@@H]2N)[C@H](N)[C@@H](O)[C@@H]1O,activation,[4],inactive: -1.56% [at 19 µM]
same,"activity change, negative = inhibition",[3]; [10],inactive: 11.8% [at 18.9 µM]
same,Potency,[5],"inconclusive: 1.64 µM [cytotoxic, partial curve, poor fit]"
same,"activity change, negative = cytotoxicity",[9],inactive: -5.22% [at 15.8 µM]
O=C1OC(=O)c2ccccc21,Potency,[4],active: 60.8 µM
same,Potency,[6],"inconclusive: 6.08 µM [cytotoxic, single point]"
CCCCC(=O)OCC(=O)[C@H]1[C@H](C)C[C@H]2[C@@H]3C[C@H](F)C4=CC(=O)C=C[C@]4(C)[C@@]3(F)[C@@H](O)C[C@@]21C,Potency,[4],active: 0.0133 µM
same,Potency,[6],"inconclusive: 0.0067 µM [rising, full curve]"
CC(=O)N(CC(O)CN(C(C)=O)c1c(I)c(C(=O)NCC(O)CO)c(I)c(C(=O)NCC(O)CO)c1I)c1c(I)c(C(=O)NCC(O)CO)c(I)c(C(=O)NCC(O)CO)c1I (stereo unspecified),Potency,[4],inactive
CC1=CC(C)(C)Nc2ccccc21,Potency,[4],inactive
same,Potency,[3]; [10],"inconclusive: 26.6 µM [falling, single point]"
same,Potency,[5],"inconclusive: 26.6 µM [cytotoxic, single point]"
same,Potency,[6],"inconclusive: 5.3 µM [rising, partial curve]"
Cc1ccc2ccc(Cl)cc2n1,Potency,[4],inactive
CCCCNC(=O)NCCCC,activation,[4],inconclusive: 8.69%
same,Potency,[5],inactive
same,Potency,[7],"inconclusive: 6.16 µM [cytotoxic, single point]"
CC(C)C/C=C(\C=O)c1ccccc1,Potency,[1],"inconclusive: 54.5 µM [cytotoxic, partial curve, poor fit]"
same,Potency,[7],inactive
CCCCC(CC)COC(=O)CC#N (stereo unspecified),Potency,[4],inactive
same,Potency,[5],"inconclusive: 0.969 µM [cytotoxic, single point]"
CC(=O)OCC(=O)[C@@]1(O)CC[C@H]2[C@@H]3CCC4=CC(=O)C=C[C@]4(C)[C@@]3(F)[C@@H](O)C[C@@]21C,Potency,[4],"inconclusive: 15 µM [falling, partial curve, poor fit]"
same,Potency,[3]; [10],"inconclusive: 2.98 µM [rising, single point]"
same,Potency,[5],"inconclusive: 2.98 µM [cytotoxic, single point]"
same,Potency,[6],inactive
same,Potency,[9],inactive
